Source: the supplement of paper PMC3334620
In all, about 33,000 sequences were measured (“E-score (-0.5 to 0.5)”: median about -0.012, highest 2% from about 0.29 on). The list shows a part of the results.

What follows are sequences tested against T1, Ybr033w (UniProt P38073) (assay: PBM E-score (8-mer binding enrichment) (E-score (-0.5 to 0.5)); higher = stronger / more preferred TF binding; most listed sequences are background and not binding sites). Settings: protein concentration: 200 nM; construct: GST-full length.
T1 sequence: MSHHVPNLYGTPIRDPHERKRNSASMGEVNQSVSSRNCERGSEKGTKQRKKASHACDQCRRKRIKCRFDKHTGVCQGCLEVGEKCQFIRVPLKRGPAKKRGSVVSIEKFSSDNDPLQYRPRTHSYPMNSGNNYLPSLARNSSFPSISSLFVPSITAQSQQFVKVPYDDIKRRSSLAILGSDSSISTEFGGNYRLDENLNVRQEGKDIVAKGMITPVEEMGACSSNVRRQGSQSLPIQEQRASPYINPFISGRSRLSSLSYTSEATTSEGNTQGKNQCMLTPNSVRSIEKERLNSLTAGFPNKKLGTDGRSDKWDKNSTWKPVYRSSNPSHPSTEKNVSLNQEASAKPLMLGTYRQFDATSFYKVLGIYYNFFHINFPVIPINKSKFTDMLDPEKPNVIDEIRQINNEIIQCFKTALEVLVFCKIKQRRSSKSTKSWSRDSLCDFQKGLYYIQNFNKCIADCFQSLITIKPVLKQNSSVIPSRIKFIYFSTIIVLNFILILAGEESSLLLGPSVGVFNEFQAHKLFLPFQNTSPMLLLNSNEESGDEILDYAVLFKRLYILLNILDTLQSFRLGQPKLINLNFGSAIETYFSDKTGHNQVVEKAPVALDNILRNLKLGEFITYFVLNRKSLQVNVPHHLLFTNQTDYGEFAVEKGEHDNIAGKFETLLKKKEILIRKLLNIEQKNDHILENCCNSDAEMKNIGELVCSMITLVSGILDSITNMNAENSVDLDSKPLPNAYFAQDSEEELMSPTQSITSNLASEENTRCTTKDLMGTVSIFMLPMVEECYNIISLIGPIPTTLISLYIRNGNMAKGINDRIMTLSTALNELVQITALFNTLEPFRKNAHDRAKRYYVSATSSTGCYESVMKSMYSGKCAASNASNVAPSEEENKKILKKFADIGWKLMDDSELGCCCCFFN
How it was run: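 Universal all-10-mer Agilent arrays, fresh or stripped once, were converted to double-stranded form by primer extension. GST-tagged yeast transcription factors from PURExpress in vitro transcription/translation, full-length or DNA-binding domain only, were applied at about 100-200 nM and detected with fluorescent anti-GST. After masliner normalisation, the Universal PBM Analysis Suite scored each ungapped eight-base word together with its reverse complement by E-score.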

Sequence | PBM E-score
GACTCTAA | 0.115
TCATCCCA | -0.0103
AGTATTCA | 0.142
CCGGATAG | 0.0368
ACCAAAAG | 0.135
GGGGCATA | -0.14
AATGCAGC | -0.0861
AAAACGGG | 0.036
AGGCAGCC | -0.0856
AATTGGGG | -0.223
GAAGCTCA | -0.0233
CGCCTCCC | -0.375
AGAATGAA | 0.184
AGACGGTA | 0.033
TCGGCTAA | 0.0162
TAGTTGGA | 0.174
AACCCGTT | -0.114
GCTCAGAC | 0.0418
CACCCAGC | -0.284
ACTCGAGT | 0.111
ACACGGTA | 0.0624
ACAACGGT | -0.167
TAGCTGCA | -0.177
ATATGGGC | -0.0129

Sequence | PBM E-score
AAACGATG | 0.162
CCACCGAC | -0.0879
AATCCTGC | -0.0851
AAAGAGAT | 0.0748
TACAGATA | 0.291
GAAGAGCA | -0.153
ACGCGCAC | -0.0175
CTTGCTTA | 0.0963
CCACGCAA | 0.0511
CAAGAGCA | -0.19
ATCCACCA | 0.05
GAAAAGGC | -0.0286
ATATGCCA | 0.167
AACCCGGT | -0.135
TACACCGA | -0.0283
TCAACAAA | 0.167
GTGCCTGA | -0.0516
AACACATA | 0.247
AAGTCCCC | -0.285
CTATGAGC | -0.0638
CATAGTAG | 0.087
AAGTACGG | -0.0591
TAGCTAGA | -0.00952
GAGGGTGA | -0.135

Sequence | PBM E-score
AACCCGGG | -0.111
GAACAACC | 0.241
CACGACTC | 0.0534
AATGCCGC | 0.0501
CGGCACCG | -0.208
CAAACTTG | 0.0901
ATTGTAAG | -0.0101
CAATGCTC | -0.00261
GCAGTCGC | -0.239
GGCCGTGA | -0.206
ATAGGGGA | -0.197
GACGTTGC | 0.0121
ATATCATA | 0.248
ATATGCGC | 0.047
ATGAGGCA | -0.13
CATCCAAC | 0.128
CTTATAGC | 0.0209
AGGTACCC | -0.263
ACTAAGCT | 0.205
CACCACCG | -0.312
AGACTGCC | -0.219
AGCCAGTC | -0.195
CCGTGGGC | -0.0714
AGAAGCGG | -0.103

Sequence | PBM E-score
AGTATGAA | 0.182
AGTTTGAG | 0.0877
ACTACAGG | 0.145
CAGAGGGC | -0.151
ACTCGGAC | 0.0175
CTACCAGC | -0.0422
ATGACGAA | 0.2
GATTCTAC | -0.0106
GTGATTAA | 0.291
AAAAGTCG | 0.00288
ACGGAATC | 0.113
TCGAGAGA | -0.0808
GCACGACA | -0.251
CCCGGTTA | -0.354
ACCCTGTG | -0.0604
ATACTCCA | 0.00821
GCAGCCAC | -0.0203
CGAACTCA | -0.124
CGGCCGCA | -0.208
AAACCAGT | 0.079
CAATCTCA | 0.0287
AAACGCGT | 0.00157
GCGGTTCC | -0.0683
AACTCCAT | 0.166

Sequence | PBM E-score
GATGTCGA | -0.0381
CTAAGCCC | -0.289
TAGGAGCA | -0.212
AGTTTGCG | -0.0516
AATATTTC | 0.34
CGATCGTA | -0.088
AAGAATGG | 0.131
CTGCCCTA | -0.129
AACTGGCG | 0.0107
AAGGTAAT | 0.139
CTACCTAG | -0.243
CGAGGGAC | -0.406
TCCTATCA | -0.0135
ATTCTATA | 0.207
ATACGCTG | -0.0162
GGACGAGA | -0.2
CTAAGGTC | -0.148
CATGGGCG | -0.0951
CTACAAGC | -0.0775
ACAAAATG | 0.259
CTCGTTCC | -0.158
GGTAGCGA | 0.0182
ATCATGTA | 0.173
GATACCGC | -0.0911

Sequence | PBM E-score
ATTCGTAA | 0.222
CGAGACCA | -0.0425
CGTCACAA | -0.0784
CAGTTAGA | 0.0268
AAGAACTC | 0.167
GCCTGAGA | -0.128
GCAAGCAC | -0.186
TATACACA | 0.249
ATGTCATG | 0.0437
ATGACACA | 0.167
AATTGATA | 0.255
CTTCCTCA | -0.172
CCCCTCTC | -0.288
ATGATCGC | -0.0782
AGCGGGAA | 0.0835
AATTGACG | -0.0634
CGGATACA | 0.0961
CCTTAACC | 0.00326
CCAGAGCA | -0.0441
CATGGCCA | -0.223
GATTAGGC | -0.0308
ACGATTAC | -0.03
CAGTACCA | 0.0107
AGATCCTG | -0.0115

Sequence | PBM E-score
CAGTGGAA | -0.0743
GTTACGCA | -0.125
CCGCATCA | -0.0372
CTATACGC | 0.00539
CTGCTTCC | -0.15
AGAAGTTC | 0.0165
CAGTCCCA | -0.248
AGCCTGGG | -0.157
CAACCTAG | -0.0189
AATGCTCC | -0.00557
ATAATGGC | 0.0328
GTCGAAAA | 0.122
ATCCGGGG | 0.181
TAAAACTA | 0.195
AATTAACA | 0.295
TGGCGACA | -0.039
CACTGCCA | 0.0567
AAGGTGTA | 0.104
ACTGGCTG | -0.182
ACAACTCC | -0.0224
GCGACTAC | -0.114
CCATGCAA | 0.13
AAAGCATT | 0.0559
AACCCAGT | -0.102

Sequence | PBM E-score
CGATCTAA | 0.0946
GGGGGACC | -0.384
CAAATCCG | 0.0419
CAATGGTC | 0.169
TCAGTGCA | -0.0189
AAAGGTTC | 0.0654
AGAATACG | 0.0732
CACAACAG | 0.0436
CTTGGTCC | -0.1
AAGGGAAG | 0.0133
AACCGGGA | -0.132
CAGCAGGA | -0.079
GAACACAC | 0.058
ATCGAGCC | 0.0208
CGGCCCCA | -0.253
GCTTAACA | 0.0687
CATGCATA | 0.0541
TGAAGGCA | 0.00214
CTCACATA | -0.115
TAGTGGAA | -0.0197
TCGGTGCA | -0.103
CCGGCAGA | -0.144
CGGCGATC | -0.113
GCGCCGGA | -0.11

Sequence | PBM E-score
ACGCTTAT | -0.105
GACCAGGC | -0.164
AGAGACAG | -0.067
GTGCAGAA | 0.00483
AGATTAGC | -0.0299
CTAGGATC | -0.146
ATTTGGAA | 0.169
TAATTCCA | 0.257
CTTGCGAC | -0.204
AAGGTCAA | -0.0287
AACTCCAC | 0.111
GCAGAGCA | -0.16
ATAGGGTA | -0.0147
GAGTCCTA | 0.0305
AGAATGAT | 0.167
CAATAGTA | 0.168
AAGTACTC | -0.0708
GTTGTCCA | 0.00858
GTTCGTAA | 0.0833
AAATCCAG | 0.218
AGCTGTGA | 0.00067
CTTTAGTA | 0.0159
TAGGTATA | 0.169
CCGTATTA | 0.13

Sequence | PBM E-score
GAATGGAC | -0.0608
AAATATGC | 0.237
CCAACCGC | 0.0131
AAATCCCA | 0.0991
TCCGCCCA | -0.00602
GGTGGCTA | -0.0428
AAGATTAT | 0.247
GATTATTA | 0.298
AATTTAGA | 0.211
TAATACAA | 0.202
CCGGGTCC | -0.234
TTCTACAA | 0.207
GTTGCAGA | -0.0954
TCCCTTAA | 0.0737
CATAGGCA | -0.194
CGCCTAGA | -0.0891
GGTCCTAA | -0.148
TCCCCGAA | 0.0432
GGGAAGTA | -0.0247
CAATCGCA | 0.0591
ACGACTCA | -0.0223
CGCCCACG | -0.163
CCGCTGTA | -0.0199
GACGCATC | -0.0923

Sequence | PBM E-score
TTAATTAA | 0.241
ATGGGCCG | -0.165
GTCACTTA | 0.236
GGATCTGA | -0.0531
ACCCTGAC | -0.23
ATTCGTCA | 0.0697
AGTGTGCG | -0.0768
CCTTAGGC | -0.258
AGTATCTA | 0.213
ACGATTCC | 0.0523
ATGGTGTC | -0.03
GTTATTGA | 0.0969
ATGGTATC | 0.131
CAATGGGA | -0.041
CCCCTATC | -0.337
AGTCCGTA | -0.251
GAAGAGCC | -0.13
ATATAGTG | 0.181
ACTCGCAC | -0.248
ACCGCACG | -0.169
GTTCACTA | 0.0992
CAATTGCG | -0.0935
CCCGTCGG | -0.196
GCCCCAAC | -0.0113

Sequence | PBM E-score
AGGTCATC | 0.0144
ATCAACTG | 0.141
ACAGCCTA | 0.118
GCCGTTAA | 0.0115
AAGAGGTC | -0.0651
CTTTGCAC | 0.0862
ACATAGCG | 0.0674
GCATCCTA | 0.0175
CAGGAGAC | -0.0953
ATAAGCCG | -0.0781
GCGTTCAA | 0.117
CTTAAATC | 0.105
TCAAGTAA | 0.199
CTCGTTCA | -0.102
TGGCAAAA | 0.183
CCTAAAAA | 0.196
ATCCCAGG | -0.28
CCAGTTAC | -0.303
ACGAAGTG | -0.00975
ACCAGACT | 0.0132
ACAATTAT | 0.328
ATTTGTGG | 0.0535
